Converted amounts (≈) assume the structure as drawn. “And” between values parts separate entries of the source, which are not always exact repeats. Equal entries are not always repeated. Where two headings read alike, the source gives them in different places.
Tests used:
[1] = tested on: Treponema hyodysenteriae B 204
[2] = tested on: Treponema hyodysenteriae DJ70 P-3; conditions: for Lesion: mice with lesion/mice; for ED50: Table 1; for ED50 / Fifty-percent effective dosages (ED50): CF-1 mice, administration through drinking water; for Curative ratios: Table 2; for Fifty-percent effective dosages (ED50): list after b26
Procedure: Groups of seven-week old mice (CF-1) are orally infected with Treponema hyodensenteriae DJ 70 P-3 as the test pathogen, each group consisting of five mice. The mice are fasted beginning one day before the bacterial infection, and hygromycin A is administered to them in drinking water at the dosages of 60, 30, 15, 7.5, 3.7, 1.8 and 0.9 µg/ml. The bacterial infection is effected on the first and second days after fasting. The drug is administered through drinking water for six consecutive days after the first bacterial infection. On the sixth day of the administration the test animals are necropsied, and presence of Treponema hyodysenteriae in the contents of their digestive organs are determined by three days' cultivation in blood agar. As the positive control, Lincomycin (60-3.7 pg/ml) Dynamutilin, lankacidin C and olaquindox (60-7.5 µg/ml, respectively) are administered through drinking water at the concentrations indicated. As the negative control, untreated group allowed to freely drink water.

[3] = tested on: A. laidlawii KB 175 (Bm-1); test: microbe, parasite or virus in culture; conditions: Medium D
Description: (§1) For reference, the minimum growth inhibition concentrations (MIC) to various bacteria of above five drugs and Lankacidin C are shown in Table 3.

[4] = tested on: Acholeplasma laidlawii KB 174 (PG-8); test: microbe, parasite or virus in culture; conditions: Medium D
Description: as §1

Aspergillus niger KF-105 = test: microbe, parasite or virus in culture; conditions: Medium E
Description: as §1

[5] = tested on: B. cereus KB 143 (IFO 3001); test: microbe, parasite or virus in culture; conditions: Medium A
Description: as §1

[6] = tested on: B. megaterium KB 144 (IFO 12108); test: microbe, parasite or virus in culture; conditions: Medium A
Description: as §1

[7] = tested on: Bacillus subtilis KB 211 (ATCC 6633); test: microbe, parasite or virus in culture; conditions: Medium A
Description: as §1

[8] = tested on: C. difficile KB 258 (ATCC 9689); test: microbe, parasite or virus in culture; conditions: Medium B
Description: as §1

[9] = tested on: C. novyi KB 136 (ILD 140); test: microbe, parasite or virus in culture; conditions: Medium B
Description: as §1

Candida albicans KF-1 = test: microbe, parasite or virus in culture; conditions: Medium E
Description: as §1

[10] = tested on: E. coli KB 176 (NIHJ JC-2); test: microbe, parasite or virus in culture; conditions: Medium A
Description: as §1

[11] = tested on: E. coli KB 198 (ML^r,LCM^s); test: microbe, parasite or virus in culture; conditions: Medium A
Description: as §1

[12] = tested on: Escherichia coli KB 213 (NIHJ); test: microbe, parasite or virus in culture; conditions: Medium A
Description: as §1

[13] = tested on: Fusobacterium varium KB 234 (ATCC 8501); test: microbe, parasite or virus in culture; conditions: Medium B
Description: as §1

[14] = tested on: Haemophilus pleuropneumoniae KB 282; test: microbe, parasite or virus in culture; conditions: Medium C
Description: as §1

[15] = tested on: Klebsiella pneumoniae KB 214 (IFO 10031); test: microbe, parasite or virus in culture; conditions: Medium A
Description: as §1

[16] = tested on: M. gallisepticum KB 171 (S-6); test: microbe, parasite or virus in culture; conditions: Medium D
Description: as §1

[17] = tested on: M. gallisepticum KB 172 (333-P); test: microbe, parasite or virus in culture; conditions: Medium D
Description: as §1

M. pneumoniae KB-173 = test: microbe, parasite or virus in culture; conditions: Medium D
Description: as §1

[18] = tested on: Micrococcus luteus KB 212 (ATCC 9341); test: microbe, parasite or virus in culture; conditions: Medium A
Description: as §1

[19] = tested on: Mucor racemosus KF 223 (IFO 4581); test: microbe, parasite or virus in culture; conditions: Medium E
Description: as §1

[20] = tested on: Mycobacterium smegmatis KB 42 (ATCC 607); test: microbe, parasite or virus in culture; conditions: Medium A
Description: as §1

[21] = tested on: Mycoplasma gallisepticum KB 170 (KP-13); test: microbe, parasite or virus in culture; conditions: Medium D
Description: as §1

[22] = tested on: Penicillium herquei KE 227 (IFO 4647); test: microbe, parasite or virus in culture; conditions: Medium E
Description: as §1

[23] = tested on: Proteus vulgaris KB 127 (IFO 3167); test: microbe, parasite or virus in culture; conditions: Medium A
Description: as §1

[24] = tested on: Pseudomonas aeruginosa KB 115 (IFO 3080); test: microbe, parasite or virus in culture; conditions: Medium A
Description: as §1

[25] = tested on: S. aureus KB 199 (ML^r,TC^r); test: microbe, parasite or virus in culture; conditions: Medium A
Description: as §1

[26] = tested on: S. aureus KB 34 (FDA 209p); test: microbe, parasite or virus in culture; conditions: Medium A
Description: as §1

[27] = tested on: S. cerevisiae KF 237 (ATCC 9763); test: microbe, parasite or virus in culture; conditions: Medium E
Description: as §1

Saccharomyces sake KF 26 = test: microbe, parasite or virus in culture; conditions: Medium E
Description: as §1

[28] = tested on: Staphylococcus aureus KB 210 (ATCC 6538p); test: microbe, parasite or virus in culture; conditions: Medium A
Description: as §1

[29] = tested on: Treponema hyodysenteriae B 78; test: microbe, parasite or virus in culture; conditions: Medium F
Description: as §1

[30] = tested on: Treponema hyodysenteriae DJ 70 P-3; test: microbe, parasite or virus in culture; conditions: Medium F
Description: as §1

[31] = tested on: Trichophyton interdigitale KF 62; test: microbe, parasite or virus in culture; conditions: Medium E
Description: as §1

[32] = tested on: pasteurella hemolytica KB 281; test: microbe, parasite or virus in culture; conditions: Medium C
Description: as §1

[33] = Treatment D, carbadox 50 g/ton feed, Total
[34] = Treatment D, carbadox 50 g/ton feed, per group (Group No. 4, 7)
[35] = Dosage 7.5 μg/mℓ in drinking water
[36] = Dosage 15 μg/mℓ in drinking water
[37] = Dosage 30 μg/mℓ in drinking water
[38] = Dosage 60 μg/mℓ in drinking water

## COC(=O)N/N=C/c1c[n+]([O-])c2ccccc2[n+]1[O-] [Carbadox, carbadox]
[1]; [33]
  General appearance : No of pig days Depressed: 3 pig days
  General appearance : No of pig days Moribund: 0 pig days
  General appearance : No of pig days Normal: 272 pig days
  General appearance : share of pig days Depressed: 1%
  General appearance : share of pig days Normal: 99%
[1]; [34]
  General appearance : No of pig days Depressed: 1 pig days and 2 pig days
  General appearance : No of pig days Moribund: 0 pig days
  General appearance : No of pig days Normal: 144 pig days and 128 pig days
[1]; carbadox treatment group b, 50 g/ton feed
  percent recovery of T. hyodysenteriae from rectal swabs, average: 8%
[1]; group D, carbadox 50 g/ton feed, […]
  lesions in large intestine (pigs with lesions): 10%

## Cc1c(C(=O)NCCO)[n+]([O-])c2ccccc2[n+]1[O-] [Olaquindox]
[2]; [35]
  Noninfective (%): 0%
  Presence of T. hyo. 1st day: 5/5
  Presence of T. hyo. 3rd day: 5/5
  Lesion: 5/5
[2]; [36]
  Noninfective (%): 0%
  Presence of T. hyo. 1st day: 5/5
  Presence of T. hyo. 3rd day: 5/5
  Lesion: 5/5
[2]; [37]
  Noninfective (%): 0%
  Presence of T. hyo. 1st day: 5/5
  Presence of T. hyo. 3rd day: 5/5
  Lesion: 5/5
[2]; [38]
  Noninfective (%): 0%
  Presence of T. hyo. 1st day: 3/5
  Presence of T. hyo. 3rd day: 5/5
  Lesion: 3/5
[2]
  ED50: >60 µg/mL
  Fifty-percent effective dosages (ED50): >60 µg/mL
[2]; Dosage 7.5 μg/mℓ
  Curative ratios: 0%
[2]; Dosage 15 μg/mℓ
  Curative ratios: 0%
[2]; Dosage 30 μg/mℓ
  Curative ratios: 0%
[2]; Dosage 60 μg/mℓ
  Curative ratios: 0%

## CC(=O)C(=O)N[C@@H]1/C=C(C)/C=C/[C@@H](O)C/C=C(C)/C=C/[C@@H](O)C[C@H]2OC(=O)[C@]1(C)C(=O)[C@@H]2C [Lankacidin C]
[2]; [35]
  Noninfective (%): 0%
  Presence of T. hyo. 1st day: 3/5
  Presence of T. hyo. 3rd day: 5/5
  Lesion: 3/5
[2]; [36]
  Noninfective (%): 0%
  Presence of T. hyo. 1st day: 0/5
  Presence of T. hyo. 3rd day: 5/5
  Lesion: 0/5
[2]; [37]
  Noninfective (%): 60%
  Presence of T. hyo. 1st day: 0/5
  Presence of T. hyo. 3rd day: 2/5
  Lesion: 0/5
[2]; [38]
  Noninfective (%): 80%
  Presence of T. hyo. 1st day: 0/5
  Presence of T. hyo. 3rd day: 1/5
  Lesion: 0/5
[2]
  ED50: 40.5 µg/mL (≈ 88.1 µM)
  Fifty-percent effective dosages (ED50): 40.5 µg/mL
[2]; Dosage 7.5 μg/mℓ
  Curative ratios: 0%
[2]; Dosage 15 μg/mℓ
  Curative ratios: 0%
[2]; Dosage 30 μg/mℓ
  Curative ratios: 60%
[2]; Dosage 60 μg/mℓ
  Curative ratios: 80%
[3]
  MIC: 25 µg/mL (≈ 54.4 µM)
[4]
  MIC: 25 µg/mL (≈ 54.4 µM)
Aspergillus niger KF-105
  MIC: >100 µg/mL
[5]
  MIC: 100 µg/mL (≈ 218 µM)
[6]
  MIC: >100 µg/mL
[7]
  MIC: >100 µg/mL
[8]
  MIC: 25 µg/mL (≈ 54.4 µM)
[9]
  MIC: 0.4 µg/mL (≈ 0.87 µM)
Candida albicans KF-1
  MIC: >100 µg/mL
[10]
  MIC: >100 µg/mL
[11]
  MIC: 0.78 µg/mL (≈ 1.7 µM)
[12]
  MIC: >100 µg/mL
[13]
  MIC: >100 µg/mL
[14]
  MIC: 6.25 µg/mL (≈ 13.6 µM)
[15]
  MIC: >100 µg/mL
[16]
  MIC: 25 µg/mL (≈ 54.4 µM)
[17]
  MIC: 50 µg/mL (≈ 109 µM)
M. pneumoniae KB-173
  MIC: 25 µg/mL (≈ 54.4 µM)
[18]
  MIC: < 0.2 µg/mL
[19]
  MIC: >100 µg/mL
[20]
  MIC: >100 µg/mL
[21]
  MIC: 50 µg/mL (≈ 109 µM)
[22]
  MIC: >100 µg/mL
[23]
  MIC: >100 µg/mL
[24]
  MIC: >100 µg/mL
[25]
  MIC: 1.56 µg/mL (≈ 3.39 µM)
[26]
  MIC: 1.56 µg/mL (≈ 3.39 µM)
[27]
  MIC: >100 µg/mL
Saccharomyces sake KF 26
  MIC: >100 µg/mL
[28]
  MIC: 0.4 µg/mL (≈ 0.87 µM)
[29]
  MIC: 0.78 µg/mL (≈ 1.7 µM)
[30]
  MIC: 0.01 µg/mL (≈ 0.0218 µM)
[31]
  MIC: >100 µg/mL
[32]
  MIC: 25 µg/mL (≈ 54.4 µM)

Reference: patent publication EP0243717A1 (priority 1986, dated 1987)
